Results as given in PubChem BioAssay AID624202 (National Center for Advancing Translational Sciences (NCATS), 2012).
Among all 380,000 compounds or so, about 4,000 (1.1%) were called active. Inconclusive results, whose numbers are uncertain, are shown with a selection of clear calls. Calls follow the shape of the dose curve; as a rule, active = well fitted activation curve with a large enough effect; inconclusive = small, poorly fitted or top-dose-only effect; inactive = no such curve, though single readings can be large or run the other way. A potency beside an inconclusive call is a rough fit, not a confirmed value.

test: qHTS Assay to Identify Small Molecule Activators of BRCA1 Expression; settings: MCF7-BRCA1-FFLuc reporter, luminescence, 48 h; activation: at 46.1 µM (top of the series), scaled: vehicle 0%, 10 µM genistein 100% unless noted; also: nearly all actives have a fitted effect of over 80% in size
How it was run: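 Luminescence from a BRCA1-driven firefly luciferase in MCF7 cells was the read-out, taken 15 min after substrate addition following 48 h compound exposure at 37 °C. Data were normalized to a 10 microM genistein control and DMSO vehicle.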
Potency is read from the fitted curve at half-maximal effect; tags tell the direction and shape of the fitted curve.

| SMILES | Potency | activation |
| --- | --- | --- |
| CC1CCc2nc(NC(=O)Cc3cccs3)sc2C1 (stereo not given) | active: 5.62 µM | – |
| COCCN1Cc2cccc(C(=O)Nc3ccc(-c4nc5ccccc5[nH]4)cc3)c2C1=O | inconclusive: 10 µM [activator, partial curve, poor fit] | – |
| Nc1ccc(CSc2ccc(Cl)cc2)c(Cl)c1 | active: 1.78 µM | – |
| Cc1nn(-c2ccccc2)c(C)c1C(=O)OCC(=O)N(C)C1CCS(=O)(=O)C1 (stereo not given) | inconclusive: 7.94 µM [activator, partial curve, poor fit] | – |
| O=C(Nc1ccc(Cl)c(Cl)c1)C1=Cc2ccccc2OC1 | inconclusive: 3.16 µM [activator, partial curve, poor fit] | – |
| Cc1csc2nc(CSc3ccc(Cl)cc3)cn12 | inconclusive: 2.24 µM [activator, full curve, poor fit] | – |
| O=C(c1cc2nc(-c3ccccc3)cc(C(F)(F)F)n2n1)N1CCCC1 | inactive | – |
| Cc1c(-c2ccccc2)nnn1-c1ccc(F)cc1F | inconclusive: 12.6 µM [activator, partial curve, poor fit] | – |
| COc1cc(N(C)C)c(OC)cc1/C=C1\Cc2ccccc2C1=O | inactive | – |
| O=C(CC1CCCCC1)NCc1ccccc1Cl | inconclusive: 17.8 µM [activator, partial curve, poor fit] | – |
| COc1ccc(C(=O)NCCn2ccc3ccccc32)c(OC)c1 | active: 7.94 µM | – |
| COc1ccc(NC(=O)COC(=O)CC2CC3CCC2C3)c([N+](=O)[O-])c1 (stereo not given) | inconclusive: 20 µM [activator, single point] | – |
| CC(C)CC(=O)Nc1ccc2oc(-c3cccnc3)nc2c1 | inconclusive: 11.2 µM [activator, partial curve, poor fit] | – |
| Cc1ccc(/C=C/C(=O)NCc2cccs2)cc1 | inconclusive: 12.6 µM [activator, partial curve, poor fit] | – |
| COCC(C)n1c(C)cc(C(=O)CSc2ncccn2)c1C (stereo not given) | inconclusive: 11.2 µM [activator, partial curve, poor fit] | – |
| CN(C)c1cccc(C(=O)OCC(=O)c2ccc[nH]2)c1 | inconclusive: 2.24 µM [activator, full curve, poor fit] | – |
| O=C1c2ccccc2C(=O)N1CCCC(=O)N1CCc2ccccc21 | inconclusive: 15.8 µM [activator, partial curve, poor fit] | – |
| O=C(O)c1ccc(-c2ccccn2)s1 | active: 10 µM | – |
| Cn1nc(C(=O)N2CCN(c3ccc(Cl)cc3)CC2)c2c1-c1ccccc1S(=O)(=O)C2 | inactive | – |
| COc1ccc(OCc2cc(C(=O)NC(C)Cc3cnccn3)no2)c(Cl)c1 (stereo not given) | active: 11.2 µM | – |
| COc1cccc(C(=O)NC(=S)Nc2ccc([N+](=O)[O-])cc2C)c1 | inactive | – |
| O=C(Nc1cccc(O)c1)c1ccccc1 | inconclusive: 35.5 µM [activator, single point] | – |
| O=C(Nc1cccc(Cl)c1Cl)c1csc([C@H]2C[C@H](O)[C@@H](CO)O2)n1 | inconclusive: 7.08 µM [activator, full curve, poor fit] | – |

| SMILES | Potency | activation |
| --- | --- | --- |
| O=C(NCC1CCCO1)c1cc(-c2ccc(Cl)cc2Cl)on1 (stereo not given) | inconclusive: 2.51 µM [activator, partial curve, poor fit] | – |
| Cc1ccc(/C=N/NC(=O)c2ccc(N(C)S(=O)(=O)c3ccccc3)cc2)cc1 | inactive | – |
| Cc1ccc(-c2nnc(-c3ccc4ccccc4c3)o2)cc1 | active: 4.47 µM | – |
| CCC(Sc1nc2ccccc2c(=O)[nH]1)C(=O)Nc1ccc(C(C)=O)cc1 (stereo not given) | inconclusive: 10 µM [activator, partial curve, poor fit] | – |
| COCC(C)n1c(C)cc(C(=O)COC(=O)c2n[nH]c3ccccc23)c1C (stereo not given) | inconclusive: 1.26 µM [activator, full curve, poor fit] | – |
| CC1CCC2(CC1)Nc1ccccc1C(=O)N2c1ccccc1 (stereo not given) | inconclusive: 11.2 µM [activator, partial curve, poor fit] | – |
| C=CCNc1cnn(-c2ccc(C)cc2)c(=O)c1Cl | inconclusive: 2.51 µM [activator, full curve, poor fit] | – |
| Nc1nc(COc2ccccc2)cs1 | inconclusive: 12.6 µM [activator, single point] | – |
| O=C(NCCN1CCOCC1)c1sc2cc(Cl)ccc2c1Cl | inconclusive: 35.5 µM [activator, partial curve, poor fit] | – |
| O=C(O)c1cccc2c1C(=O)c1ccc(-c3ccc(Cl)c(C(F)(F)F)c3)cc1S2(=O)=O | inconclusive: 12.6 µM [activator, single point] | – |
| O=C(Nc1ccc([N+](=O)[O-])cc1)C(=O)Nc1cccc(C(=O)O)c1 | – | inconclusive: -70.6% [activator] |
| c1ccc(CCc2nc3ccccc3[nH]2)cc1 | active: 6.31 µM | – |
| COc1ccc(Cc2c(-c3ccc(C)cc3)nc3ccc(Cl)cn23)c(C)c1 | inconclusive: 11.2 µM [activator, partial curve, poor fit] | – |
| COc1cc2c(cc1NC(=O)CCCN1C(=O)CCC1=O)oc1ccccc12 | inconclusive: 14.1 µM [activator, single point] | – |
| O=[N+]([O-])c1cccc(-c2ccc(C(=S)N3CCOCC3)o2)c1 | active: 4.47 µM | – |
| COc1ccc(OC)c(C(Cc2ccnc3ccccc23)Cc2ccnc3ccccc23)c1 | inactive | – |
| C=CCOc1ccc(/C(O)=C2/C(=O)C(=O)N(CCCN3CCOCC3)C2c2ccccc2)cc1 (stereo not given) | inactive | – |
| CS(=O)(=O)c1cccc(-c2csc(N3CCC(C(N)=O)CC3)n2)c1 | inconclusive: 0.355 µM [activator, full curve, poor fit] | – |
| Cc1cc(NC(=O)CSc2nc3c(sc4ccccc43)c(=O)n2CCc2ccccc2)n[nH]1 | inactive | – |
| Cc1ccc(-c2noc(-c3cc4ccccc4oc3=O)n2)cc1 | inactive | – |
| COc1ccccc1C1=NOC(CN2C(=O)c3ccccc3S2(=O)=O)C1 (stereo not given) | inconclusive: 0.794 µM [activator, full curve, poor fit] | – |
| O=C(Nc1ncccc1O)c1cc2ccccc2o1 | inactive | – |
